Assay results published in PubChem BioAssay AID1745845 (National Center for Advancing Translational Sciences (NCATS), 2022).
Hit rate of the full screen: of about 360,000 compounds, about 2,600 (0.72%) were called active. This list was built around the results that the source calls inconclusive (neither active nor inactive); the mix of calls is not that of the screen. Calls follow the shape of the dose curve; as a rule, active = well fitted inhibition curve with a large enough effect; inconclusive = small, poorly fitted or top-dose-only effect; inactive = no such curve, though single readings can be large or run the other way. Potencies beside an inconclusive call are fits to weak or partial responses and may not hold up.

assay: Primary qHTS for Inhibitors of ATXN expression; details: HEK-293 ATXN2-luciferase reporter, luminescence, 24 h; activity change, negative = inhibition: at 57 µM (top of the series); also: nearly all actives have a fitted effect of over 55% in size
In short: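 qHTS (up to 57 uM final) was run with 24 h compound exposure of reporter cells at 37 °C. Each well was multiplexed: SteadyGlo luminescence measured ATXN2-luciferase expression after a fluorogenic Gly-Phe-AFC viability readout (25 uM final).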
% is scaled to controls: 0 for no effect and ±100 for the full control effect; potency is read from the fitted curve at half-maximal effect; tags tell the direction and shape of the fitted curve.

SMILES | Potency | activity change, negative = inhibition
Cc1ccc(Cn2c(C(=O)O)c(CNCc3cccs3)c3ccc(C)cc32)cc1 | inconclusive: 39.8 µM [inhibitor, single point] | 
COc1cccc(/C=N/Nc2cc(-n3nc(C)cc3-c3ccccc3)ncn2)c1O | inconclusive: 8.91 µM [inhibitor, partial curve] | 
O=C(/C=C/c1ccc(Cl)cc1Cl)N1CCN(c2ccc([N+](=O)[O-])c(N3CCOCC3)c2)CC1 | inconclusive: 10 µM [inhibitor, partial curve, poor fit] | 
CCN1C(=O)C(=Cc2cccc(OC)c2Oc2ccc([N+](=O)[O-])cc2[N+](=O)[O-])SC1=S | active: 22.4 µM | 
Cc1nn(-c2ccccc2)c(N2CCCC2)c1/C=N/NC(=O)c1cc(-c2cccs2)nc2ccccc12 | inactive | 
CC1(C)Cc2c(c(-c3ccco3)nc3sc4c(NCCN5CCOCC5)ncnc4c23)CO1 | inconclusive: 21.2 µM [inhibitor, partial curve, poor fit] | 
COc1cc(OC)cc(C2=Cc3ccccc3C(CC(C)=O)N2c2ccc(C#CCCO)cc2)c1 (stereo unspecified) | inconclusive: 39.8 µM [inhibitor, partial curve, poor fit] | 
Cc1[nH]c2ccccc2c1CCN(Cc1cccs1)C(=S)Nc1ccccc1 | inconclusive: 35.5 µM [inhibitor, single point] | 
Cc1ccc(Oc2ccc(NC(=O)Cn3ccsc3=N)cc2)cc1 | inconclusive: 17.8 µM [inhibitor, single point] | 
O=C(NNC(=S)NC1CCCCC1)c1cccc(S(=O)(=O)Nc2ccccc2Cl)c1 | inactive | 
CCOc1ccc(CN(C)c2nc(-c3cccnc3)nc3ccccc23)cc1OC | active: 18.9 µM | 
OCCC1CN(Cc2cnc(-c3ccccc3)s2)CCN1C1CCCC1 (stereo unspecified) |  | inactive: -18.9% [at 11.3 µM]
CCOC(=O)c1c(Nc2ccc(Cl)cc2)sc(/C=C2\C=Nc3ccccc32)c1O | inconclusive: 22.4 µM [inhibitor, partial curve, poor fit] | 
CCOC(=O)c1c(NC(=O)COC(=O)CCS(=O)(=O)c2ccc(C)cc2)sc(C)c1C | inconclusive: 8.91 µM [inhibitor, partial curve] | 
Cc1ccccc1NC(=O)CSc1nc(COc2ccccc2)nc2ccccc12 | inconclusive: 25.1 µM [inhibitor, partial curve] | 
CC(C)(C)C(=O)Nc1cc2nn(-c3ccccc3)nc2cc1Cl | inconclusive: 28.2 µM [inhibitor, single point] | 
CN(C)CC1CCC/C(=C\c2ccc(OC(=O)/C=C/c3ccccc3)cc2)C1=O (stereo unspecified) | active: 25.1 µM | 
CC(c1ccccc1)n1c(SCC(=O)N2CC(=O)Nc3ccccc32)nc2ccccc2c1=O (stereo unspecified) | inconclusive: 39.8 µM [inhibitor, partial curve, poor fit] | 
O=C(c1c[nH]c(C(=O)C(Cl)(Cl)Cl)c1)c1ccccc1Cl | inactive | 
Clc1cccc(-c2nc(NCc3cccnc3)c3ccccc3n2)c1 | inconclusive: 39.8 µM [inhibitor, single point] | 
Nc1ncnc2c1c(-c1cccc(OCc3ccccc3)c1)cn2C1CC(CN2CCCC2)C1 (stereo unspecified) | active: 30.6 µM | 

SMILES | Potency | activity change, negative = inhibition
CCN(c1cccc2ccccc12)S(=O)(=O)c1ccc(Cl)nc1 | inactive | 
C[C@H](CO)N1C[C@H](C)[C@@H](CN(C)Cc2ccc(Cl)c(Cl)c2)Oc2c(NC(=O)C3CC3)cccc2C1=O | inconclusive: 22.4 µM [inhibitor, single point] | 
CN(c1ccccc1)S(=O)(=O)c1cccc(C(=O)NCCc2c[nH]c3ccccc23)c1 | inactive | 
S=c1[nH]cnc2scc(-c3ccc(Br)cc3)c12 | inconclusive: 31.6 µM [inhibitor, single point] | 
COc1ccccc1NS(=O)(=O)c1cccc(C(=O)N2CCCC2)c1 | inactive | 
Cc1ccc(NC(=O)C(OC(=O)c2ccccc2Cl)c2ccccc2)cc1Cl (stereo unspecified) | inactive | 
C=CC[C@@H](CC(=O)N[C@H](CO)Cc1ccccc1)C(=O)N[C@@H](COC(=O)[C@@H](CC=C)Cc1ccc(F)cc1)Cc1ccccc1 | inconclusive: 35.5 µM [inhibitor, single point] | 
O=C(CSc1ncc(CO)n1Cc1ccccc1)Nc1ccc(C(F)(F)F)cc1 | inconclusive: 39.8 µM [inhibitor, single point] | 
CCN(CC)CCOC(=O)c1ccc(N/C=C(/C#N)c2nc(-c3ccc4c(c3)OCO4)cs2)cc1 | inconclusive: 15.8 µM [inhibitor, partial curve, poor fit] | 
CCc1cc2c(NCc3ccco3)ncnc2s1 | inconclusive: 39.8 µM [inhibitor, partial curve, poor fit] | 
COc1ccc(OCc2cccc(C(=O)Nc3ccc(CN4CCCCC4)cc3)c2)cc1 | inactive | 
Fc1ccccc1NC(=S)NNc1ncc(C(F)(F)F)cc1Cl | inconclusive: 39.8 µM [inhibitor, single point] | 
O=C1c2cccc3c([N+](=O)[O-])ccc(c23)C(=O)N1c1ccc(Cl)cn1 | inconclusive: 28.2 µM [inhibitor, single point] | 
CCOC(=O)N1CCN(C(=O)c2ccc(N(Cc3ccc(Cl)cc3)S(C)(=O)=O)cc2)CC1 |  | inconclusive: -49.5% [inhibitor]
N#Cc1ccccc1Cn1c(=O)n(Cc2ccc(C(=O)NC3CCN(Cc4ccccc4)CC3)cc2)c(=O)c2ccccc21 | inactive | 
O=[N+]([O-])c1ccc(NC(c2ccccc2)c2ccc3cccnc3c2O)cc1 (stereo unspecified) | active: 2.82 µM | 
CC(C)c1ccc2oc(-c3cccc(NC(=O)c4ccc5c(c4)OCCO5)c3)nc2c1 | inactive | 
CCOc1ccc(Br)cc1CSC(=N)N | inconclusive: 8.91 µM [inhibitor, partial curve, poor fit] | 
Cc1c(Nc2cc(Cl)c3nonc3c2[N+](=O)[O-])c(=O)n(-c2ccccc2)n1C | inconclusive: 7.94 µM [inhibitor, full curve, poor fit] | 
O=C(Nc1cccc(Cl)c1)Nc1ncc(CCNc2ncnc3ccsc23)s1 | inconclusive: 7.69 µM [inhibitor, partial curve] | 
